Assay results as given in patent publication US9353399B2, “Two-photon absorbing compound with methods of synthesis and use” (POSTECH ACADEMY-INDUSTRY FOUNDATION, priority 2012, dated 2016).

What was measured:
Chromaffin cell [1] = assay: One-photon microscope cell fluorescence imaging, Chromaffin cell; format: cell-based; conditions: for one-photon cell fluorescence image: Chromaffin cell (MAO B overexpressed), 100 μM, 1 hour; for one-photon fluorescence of Chromaffin cell treated with inhibitor, then Chemical Formula 3: 100 μM inhibitor, then 100 μM Chemical Formula 3, 1 hour
Excerpt: (§1) The present inventors observed a fluorescence change in the C6 glioma cell and the Chromaffin cell treated with the compound 1 and the compound of Chemical Formula 3, respectively, and a fluorescence change treated with the MAO enzyme inhibitor through an one-photon electron microscope, and the fluorescence changes were illustrated in FIG. 11. The C6 glioma cell is a representative cell in which the MAO enzyme is not expressed (Aw, J. et al., Chem. Asian. J. 2010, 5, 1317.), and the Chromaffin cell is a cell known that the MAO B is overexpressed (Youdim, M. B. H. et al., Science 1984, 224, 619.).
The C6 glioma cell and the Chromaffin cell were prepared with the density of 2×10^6 cells at a dish of 60 mm (Park, Y. et al., Endocrinology 2006, 147, 1349). Each cell was kept under a solvent condition of DMEM (Hyclone), 10% of fetal bovine serum (Hyclone), and 1% of antibiotics (WelGENE) and a condition of 5% CO2-95% air at 37° C.
(§2) Cell fluorescence imaging was measured by using a fluorescence imaging microscope (Axiovert 200M, Carl Zeiss) after 100 μM of the compound 1 and the compound of Chemical Formula 3 were treated in respective cell dishes and kept for 1 hour under the same keeping condition. […] The excitation wavelength was 435 nm to 455 nm, and the emission wavelength was recorded in 555 to 575 nm.
(§3) In the case of the cell fluorescence imaging using the inhibitor, first, 100 μM of the inhibitor was treated in each cell dish, and the keeping process in the same condition as above was performed. Subsequently, 100 μM of the compound of Chemical Formula 3 was treated, and kept for 1 hour in the same condition, and then the fluorescence was measured.

MAO B enzyme = biological target: T1, MAO B enzyme (Homo sapiens, UniProt P27338); assay: MAO enzyme kinetic assay, 96-well fluorescence assay plate (MAO B); format: biochemical; conditions: probe as substrate, 37° C., 3 hours, HEPES pH 7.4
T1 sequence (P27338 1-520): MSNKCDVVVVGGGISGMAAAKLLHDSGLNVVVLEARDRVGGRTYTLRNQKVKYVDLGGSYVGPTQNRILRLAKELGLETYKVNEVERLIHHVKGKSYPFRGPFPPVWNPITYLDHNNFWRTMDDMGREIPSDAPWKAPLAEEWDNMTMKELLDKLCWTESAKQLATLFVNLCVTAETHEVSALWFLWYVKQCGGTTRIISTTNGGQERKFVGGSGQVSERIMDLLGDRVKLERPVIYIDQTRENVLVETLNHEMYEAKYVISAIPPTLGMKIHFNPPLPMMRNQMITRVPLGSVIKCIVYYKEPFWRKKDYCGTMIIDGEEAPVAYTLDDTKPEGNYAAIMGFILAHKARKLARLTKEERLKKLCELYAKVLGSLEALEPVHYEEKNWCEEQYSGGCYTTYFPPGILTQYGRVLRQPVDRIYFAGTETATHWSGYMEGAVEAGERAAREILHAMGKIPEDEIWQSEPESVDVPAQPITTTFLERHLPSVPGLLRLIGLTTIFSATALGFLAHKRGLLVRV
Procedure: (§4) The present inventors performed enzyme kinetic assays using a 96-well fluorescence assay plate. The concentration of the compound of Chemical Formula 3 was used from 0 μM to 800 μM, MAO A and B enzymes were used with 10 μg/mL. The buffer solution was the same as Example 4, and the 96-well fluorescence assay plate was kept for 3 hours at 37° C. After 3 hours, the fluorescence intensity was measured by a microplate spectrofluorometer (VICTOR 3 VTM multilabel counter, Perkin Elmer-Wellesley, Mass., USA). The excitation wavelength was 465 nm, and the emission wavelength was recorded in 600 nm. Michaelis-Menten constants were calculated from an enzyme activity graph using an Origin program.
(§5) The present inventors used the compounds at the concentration corresponding to the Michaelis-Menten constants (Chemical Formula 3/MAO A; 70 μM, Chemical Formula 4/MAO B; 252 μM, Chemical Formula 3/MAO B; 75 μM, Chemical Formula 4/MAO B; 210 μM), and performed a fluorescence emission experiment of 50 μg/mL of the MAO enzyme in a buffer solution (100 mM HEPES, pH 7.4 with 5% glycerol and 1% DMSO). In the fluorescence graph measurement, the Photon Technical International Fluorescence system was used. As a cell for fluorescence measurement, a standard quartz cell having a width of 1 cm was used. […]

C6 glioma cell [2] = assay: One-photon microscope cell fluorescence imaging, C6 glioma cell; format: cell-based; conditions: C6 glioma cell (MAO not expressed), 100 μM, 1 hour
Excerpt: as §1, with “619.). […]” for “619.).”
as §2, §3

C6 glioma cell [3] = assay: Two-photon microscope cell fluorescence imaging, C6 glioma cell; format: cell-based; conditions: 100 μM, 1 hour, two-photon excitation 900 nm
Excerpt: (§6) The present inventors observed fluorescence changes in the C6 glioma cell and the Chromaffin cell treated with the compound 1 and the compound of Chemical Formula 3, respectively, and a fluorescence change treated with the MAO enzyme inhibitor through a two-photon electron microscope, and the fluorescence changes were illustrated in FIG. 12. The preparing process of the cells and the fluorescence measuring method were the same as those in Example 8, and the two-photon electron microscope was used in the fluorescence observation.
(§7) The two-photon electron microscope was configured by an upright microscope (BX51, Olympus) and a 20-fold objective lens (XLUMPLFLN-W, NA 1.0 water immersion, Olympus), and a Ti:Sapphire laser (Chameleon Ultra, Coherent) was used.

MAO A [4] = biological target: T2, MAO A (Homo sapiens, UniProt P21397); assay: MAO enzyme kinetic assay, 96-well fluorescence assay plate (MAO A); format: biochemical; conditions: probe as substrate, 37° C., 3 hours, HEPES pH 7.4
T2 sequence (P21397 1-527): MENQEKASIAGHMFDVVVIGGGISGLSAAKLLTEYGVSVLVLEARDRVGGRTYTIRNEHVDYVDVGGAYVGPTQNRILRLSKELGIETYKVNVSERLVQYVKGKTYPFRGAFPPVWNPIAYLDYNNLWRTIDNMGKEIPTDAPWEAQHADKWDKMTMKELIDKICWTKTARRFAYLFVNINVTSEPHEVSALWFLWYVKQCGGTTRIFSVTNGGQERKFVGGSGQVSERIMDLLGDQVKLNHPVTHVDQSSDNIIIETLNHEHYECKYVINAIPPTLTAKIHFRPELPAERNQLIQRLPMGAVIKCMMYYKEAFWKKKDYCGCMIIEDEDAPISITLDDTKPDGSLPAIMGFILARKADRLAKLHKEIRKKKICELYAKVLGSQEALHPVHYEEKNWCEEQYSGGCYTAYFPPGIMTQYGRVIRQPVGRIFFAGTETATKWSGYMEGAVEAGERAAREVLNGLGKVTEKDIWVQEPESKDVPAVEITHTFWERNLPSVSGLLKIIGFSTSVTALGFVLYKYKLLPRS
Procedure: as §4, §5

Chromaffin cell [5] = assay: Two-photon microscope cell fluorescence imaging, Chromaffin cell; format: cell-based; conditions: for two-photon cell fluorescence image: Chromaffin cell, 100 μM, 1 hour, two-photon excitation 900 nm; for two-photon fluorescence of Chromaffin cell treated with inhibitor, then Chemical Formula 3: 100 μM inhibitor, then 100 μM Chemical Formula 3, two-photon excitation 900 nm
Excerpt: as §6, §7

MAO A [6] = biological target: T2, MAO A; assay: MAO enzyme inhibitor experiment with compound of Chemical Formula 3 as fluorescent probe (MAO A); format: biochemical; conditions: 70 μM inhibitor, 10 μg/mL MAO A, 2 hours at 37° C., then 70 μM Chemical Formula 3, 3 hours
Procedure: The present inventors performed enzyme activity measurement and an enzyme inhibitor experiment using a 96-well fluorescence assay plate. […] Thereafter, 70 μM of the compound of Chemical Formula 3 was treated, and fluorescence was observed by a unit of 10 minutes for 3 hours. The buffer solution and the fluorescence observation method were the same as Example 4.

[7] = Optical characteristics (excitation, emission, quantum yield, two-photon absorption cross-section) in ethanol; conditions: 10 μM in ethanol solvent
[8] = Fluorescence change characteristic for mercury ions; conditions: 3 μM probe, PBS pH 7.4 with 5% DMSO
Procedure: The present inventors performed a fluorescence emission experiment of the compound 13 in a buffer solution (PBS, pH 7.4 with 5% DMSO) at a concentration of 3 μM. In the fluorescence measurement, the Photon Technical International Fluorescence System was used. […] The fluorescence graph was measured with an excitation wavelength of 448 nm.

Question: For `CN(C)c1ccc2cc(C=C(C#N)C#N)c(OCCCN)cc2c1` [Chemical Formula 3, 2-{[3-(3-aminopropoxy)-6-(dimethylamino)naphthalene-2-yl]methylene}malononitrile], which “one-photon cell fluorescence image” value (Chromaffin cell [1]) is on record?
Answer: a bright cell image was provided

Question: And the Michaelis-Menten constant (MAO B enzyme)?
Answer: 75 µM

Question: What about the “one-photon cell fluorescence image” value (C6 glioma cell [2]) of the same compound?
Answer: the fluorescence was not shown

Question: What about the “two-photon cell fluorescence image” value (C6 glioma cell [3]) of the same compound?
Answer: the fluorescence of the IminoPOS was not observed

Question: What about the Michaelis-Menten constant (MAO A [4]) of the same compound?
Answer: 70 µM

Question: What about the “two-photon cell fluorescence image” value (Chromaffin cell [5]) of the same compound?
Answer: the generation of the IminoPOS was observed

Question: For `O=C(NCCN1CCOCC1)c1ccc(Cl)cc1` [Moclobemide, reference compound], which “one-photon fluorescence of Chromaffin cell treated with inhibitor, then Chemical Formula 3” value (Chromaffin cell [1]) is on record?
Answer: normally generated the IminoPOS to provide the fluorescence

Question: What about the “inhibition of MAO A activity (increase of fluorescence signals)” value (MAO A [6]) of the same compound?
Answer: effectively inhibited

Question: And the “two-photon fluorescence of Chromaffin cell treated with inhibitor, then Chemical Formula 3” value (Chromaffin cell [5])?
Answer: the generation of the IminoPOS was observed

Question: Which “one-photon fluorescence of Chromaffin cell treated with inhibitor, then Chemical Formula 3” value (Chromaffin cell [1]) does the source give for `C#CCN(C)Cc1ccccc1` [Pargyline, reference compound] here?
Answer: the fluorescence was not observed

Question: What about the “two-photon fluorescence of Chromaffin cell treated with inhibitor, then Chemical Formula 3” value (Chromaffin cell [5]) of the same compound?
Answer: the generation of the IminoPOS was not observed

Question: For `CC(=O)c1ccc2cc(N(C)C)ccc2c1` [acedan, 2-acyl-6-dimethylamino-naphthalene, reference compound], which emission wavelength [7] is on record?
Answer: 501 nm

Question: And the excitation wavelength [7]?
Answer: 365 nm

Question: With `CN(C)c1ccc2cc3cc(C#N)c(=N)oc3cc2c1` [compound 1, 8-(dimethylamino)-2-imino-2H-benzo[g]chromene-3-carbonitrile] as the compound, how does the “one-photon cell fluorescence image” value (Chromaffin cell [1]) read?
Answer: bright one-photon cell images

Question: And the “one-photon cell fluorescence image” value (C6 glioma cell [2])?
Answer: bright one-photon cell images

Question: And the “two-photon cell fluorescence image” value (C6 glioma cell [3])?
Answer: bright two-photon cell images

Question: What about the emission wavelength [7] of the same compound?
Answer: 585 nm

Question: What about the excitation wavelength [7] of the same compound?
Answer: 446 nm

Question: And the “quantum yield (ΦF)” value ([7]; based on Rhodamine 6G)?
Answer: 0.67

Question: What about the “two-photon absorption cross-section (GM)” value ([7]; based on Rhodamine 6G) of the same compound?
Answer: 126 GM

Question: What about the “two-photon cell fluorescence image” value (Chromaffin cell [5]) of the same compound?
Answer: bright two-photon cell images

Question: For `C=COc1cc2cc(N(C)C)ccc2cc1C=C(C#N)C#N` [compound 13, 2-((6-(dimethylamino)-3-(vinyloxy)naphthalene-2-yl)methylene)malononitrile], which “fluorescence change with time after adding mercuric ions” value ([8]; 3 μM mercuric ions) is on record?
Answer: the fluorescence was increased as time passed

Question: And the “fluorescence change with increasing concentration of mercuric ions (HgCl2)” value ([8]; excitation 448 nm)?
Answer: the fluorescence was increased

Question: Which emission wavelength [7] does the source give for `O=c1cc(C(F)(F)F)c2cc3c4c(c2o1)CCCN4CCC3` [coumarin 153, reference compound] here?
Answer: 548 nm

Question: And the excitation wavelength [7]?
Answer: 425 nm
